{
  "source": "PubChem BioAssay (NCATS)",
  "key": {"[1]": {"test": "Viability qHTS for spleen associated tyrosine kinase inhibitor (SYKi) naive MV4-11 cells (AID 1963823); note: potency is the fitted concentration of half-maximal effect; nearly all actives have a fitted effect of over 40% in size", "settings": "MV4-11 AML viability, CellTiter-Glo luminescence, 72 h; series mostly up to 45 µM", "how_it_was_run": "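Read-out: CellTiter-Glo luminescence. Exposure: 72 hr, 37 C, 5% CO2, 95% humidity. Cells: MV4-11 without SYK inhibitor history, 500/well, qHTS format.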"}, "[2]": {"test": "Quantitative highthroughput screen to assess conditional lethalithy of NOMO1 cells grown in RPMI1640 with untreated serum (RPMI+s) (AID 1963876); note: nearly all actives have a fitted effect of over 35% in size; note: potency is the fitted concentration of half-maximal effect", "settings": "NOMO1 AML cells in RPMI+serum, CellTiter-Glo viability, 48 h; viability: at 45.8 µM (top of the series)", "how_it_was_run": "(§1)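 Each medium arm—HPLM with 10% dialyzed FBS, or RPMI1640 with 5 mM glucose and 10% untreated or dialyzed FBS—was screened against an 11-point, 3-fold compound titration for 48 h at 37 °C, with CellTiter-Glo luminescence as endpoint.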"}, "[3]": {"test": "Quantitative highthroughput screen to assess conditional lethalithy of NOMO1 cells grown in Human Plasma-Like Medium with dialyzed fetal bovine serum (HPLM+ds) (AID 1963878)", "settings": "NOMO1 AML cells in HPLM+ds, CellTiter-Glo viability, 48 h; viability: at 45.8 µM (top of the series)", "how_it_was_run": "as §1"}, "[4]": {"test": "Quantitative highthroughput screen to assess conditional lethalithy of P12 Ichikawa cells grown in Human Plasma-Like Medium with dialyzed fetal bovine serum (HPLM+ds) (AID 1963879)", "settings": "Potency: viability", "how_it_was_run": "as §1"}, "[5]": {"test": "Quantitative highthroughput screen to assess conditional lethalithy of SEM cells grown in RPMI1640 with unreated serum (RPMI+s) (AID 1963883)", "settings": "SEM B-ALL cells, CellTiter-Glo viability, 48 h; viability: at 45.8 µM (top of the series)", "how_it_was_run": "as §1"}, "[6]": {"test": "Quantitative highthroughput screen to assess conditional lethalithy of SEM cells grown in RPMI1640 with dialyzed fetal bovine serum (RPMI+ds) (AID 1963884)", "settings": "SEM B-ALL cells, RPMI+dialyzed FBS, CellTiter-Glo viability, 48 h; viability: at 45.8 µM (top of the series)", "how_it_was_run": "as §1"}, "[7]": {"test": "Quantitative highthroughput screen to assess conditional lethalithy of P12 Ichikawa cells grown in RPMI1640 with untreated serum (RPMI+s) (AID 1963881)", "settings": "Potency: viability", "how_it_was_run": "as §1"}, "[8]": {"test": "Quantitative highthroughput screen to assess conditional lethalithy of SEM cells grown in Human Plasma-Like Medium with dialyzed fetal bovine serum (HPLM+ds) (AID 1963882)", "how_it_was_run": "as §1"}, "[9]": {"test": "Cellular viability qHTS for adrenocortical cancer (ACC) cell line SW-13 (AID 1963989)", "settings": "SW-13 ACC cells viability, CellTiter-Glo, 48 h; activity (max response): hits give low values", "how_it_was_run": "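Viability was read as CellTiter-Glo luminescence after 48 h compound treatment (up to 46 uM final) of SW-13 cells grown serum-free; titration curves were fit with a four-parameter logistic model to give IC50 and efficacy.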"}, "[10]": {"test": "Quantitative highthroughput screen to assess conditional lethalithy of P12 Ichikawa cells grown in RPMI1640 with dialyzed fetal bovine serum (RPMI+ds) (AID 1963880)", "settings": "Potency: P12-Ichikawa viability", "how_it_was_run": "as §1"}},
  "note": "Values joined by “and” are separate entries in the source; they are usually repeats but may differ in a detail not shown here. Identical values can stand only once. The shares of active, inactive and inconclusive entries below differ from those in the screen. For some assays here: Potencies beside an inconclusive call are fits to weak or partial responses and may not hold up. Active and inactive are the calls of the source. Calls come from the whole dose curve; as a rule, active = well fitted curve in the direction sought with a large enough effect; inconclusive = small, poorly fitted or top-dose-only effect, or another doubt; inactive = no such curve, though single readings can be large; an effect the other way counts as inactive or inconclusive. Tags give direction and shape of the fitted curve. Throughout, for Viability: nearly all actives have a fitted effect of over 35% in size.",
  "data": [
    {"compound": "CN(C)S(=O)(=O)c1ccc2c(c1)C(=Cc1cc3c([nH]1)CCCC3)C(=O)N2", "values": [
      {"measurement": "Potency", "setting": "[1]", "value": "active: 833 nM"},
      {"measurement": "Potency", "setting": "[2]", "value": "inactive"},
      {"measurement": "Potency", "setting": "[3]", "value": "inactive"},
      {"measurement": "Potency", "setting": "[4]", "value": "inactive"},
      {"measurement": "Potency", "setting": "[5]", "value": "inactive"},
      {"measurement": "Potency", "setting": "[6]", "value": "inconclusive: 8.33 µM [cytotoxic, single point]"}
    ]},
    {"compound": "CC(C)OC(=O)OCOP(=O)(CO[C@H](C)Cn1cnc2c(N)ncnc21)OCOC(=O)OC(C)C", "values": [
      {"measurement": "Potency", "setting": "[1]", "value": "inconclusive: 10600 nM [cytotoxic, partial curve, poor fit]"},
      {"measurement": "Potency", "setting": "[2]", "value": "inconclusive: 23.5 µM [cytotoxic, partial curve]"},
      {"measurement": "Potency", "setting": "[3]", "value": "inconclusive: 16.6 µM [cytotoxic, partial curve]"},
      {"measurement": "Potency", "setting": "[7]", "value": "inconclusive: 29.6 µM [cytotoxic, single point]"},
      {"measurement": "Potency", "setting": "[8]", "value": "inconclusive: 26.4 µM [cytotoxic, single point]"},
      {"measurement": "Potency", "setting": "[5]", "value": "inconclusive: 14.8 µM [cytotoxic, partial curve, poor fit]"},
      {"measurement": "Potency", "setting": "[6]", "value": "inconclusive: 33.2 µM [cytotoxic, single point]"},
      {"measurement": "Potency", "setting": "[9]", "value": "inconclusive: 16.4 µM [cytotoxic, partial curve]"}
    ]},
    {"compound": "COc1cc2c(Oc3ccc4[nH]c(C)cc4c3F)ncnc2cc1OCCCN1CCCC1", "values": [
      {"measurement": "Potency", "setting": "[1]", "value": "active: 13 µM and active: 3.32 µM"},
      {"measurement": "Potency", "setting": "[2]", "value": "inconclusive: 33.2 µM [cytotoxic, single point]"},
      {"measurement": "Potency", "setting": "[3]", "value": "inconclusive: 33.2 µM [cytotoxic, single point]"},
      {"measurement": "Potency", "setting": "[10]", "value": "inconclusive: 26.4 µM [cytotoxic, single point]"},
      {"measurement": "Potency", "setting": "[7]", "value": "inconclusive: 33.2 µM [cytotoxic, single point]"},
      {"measurement": "Potency", "setting": "[6]", "value": "active: 5.26 µM"}
    ]}
  ]
}
